# Target: T1, viral RNA-dependent RNA-polymerase (RdRp) complex (Human respiratory syncytial virus A, UniProt P28887)
# T1 construct: expressed in transfected cells; host or cells: Huh-7 cells
# Format: cell-based
# Procedure: Based on a previously described pT7-RSV-luciferase minigenome reporter (Dochow M, et al. (2012) J Biol Chem 287(9):6878-6891), an RSV minigenome construct was generated under the control of the constitutive RNA pol I promoter (pHH-RSV-repl-firefly). Huh-7 cells were co-transfected with this plasmid and plasmids pRSV-L, pRSV-M2-1, pRSV-N and pRSV-P, respectively, under CMV promoter control. Compounds GPAR-3710 or JMN3-003 were added in serial dilutions, luciferase reporter activities determined 40 hours post-transfection, and EC50 concentrations calculated as above if possible.
# T1 sequence (P03421 whole entry): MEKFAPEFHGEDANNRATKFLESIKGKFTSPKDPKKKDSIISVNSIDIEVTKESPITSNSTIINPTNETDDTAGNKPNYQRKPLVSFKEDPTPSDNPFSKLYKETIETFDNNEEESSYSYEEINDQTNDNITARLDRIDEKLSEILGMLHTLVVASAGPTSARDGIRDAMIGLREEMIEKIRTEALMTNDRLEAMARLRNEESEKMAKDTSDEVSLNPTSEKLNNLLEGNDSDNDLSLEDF
# T1 sequence (P28887 whole entry): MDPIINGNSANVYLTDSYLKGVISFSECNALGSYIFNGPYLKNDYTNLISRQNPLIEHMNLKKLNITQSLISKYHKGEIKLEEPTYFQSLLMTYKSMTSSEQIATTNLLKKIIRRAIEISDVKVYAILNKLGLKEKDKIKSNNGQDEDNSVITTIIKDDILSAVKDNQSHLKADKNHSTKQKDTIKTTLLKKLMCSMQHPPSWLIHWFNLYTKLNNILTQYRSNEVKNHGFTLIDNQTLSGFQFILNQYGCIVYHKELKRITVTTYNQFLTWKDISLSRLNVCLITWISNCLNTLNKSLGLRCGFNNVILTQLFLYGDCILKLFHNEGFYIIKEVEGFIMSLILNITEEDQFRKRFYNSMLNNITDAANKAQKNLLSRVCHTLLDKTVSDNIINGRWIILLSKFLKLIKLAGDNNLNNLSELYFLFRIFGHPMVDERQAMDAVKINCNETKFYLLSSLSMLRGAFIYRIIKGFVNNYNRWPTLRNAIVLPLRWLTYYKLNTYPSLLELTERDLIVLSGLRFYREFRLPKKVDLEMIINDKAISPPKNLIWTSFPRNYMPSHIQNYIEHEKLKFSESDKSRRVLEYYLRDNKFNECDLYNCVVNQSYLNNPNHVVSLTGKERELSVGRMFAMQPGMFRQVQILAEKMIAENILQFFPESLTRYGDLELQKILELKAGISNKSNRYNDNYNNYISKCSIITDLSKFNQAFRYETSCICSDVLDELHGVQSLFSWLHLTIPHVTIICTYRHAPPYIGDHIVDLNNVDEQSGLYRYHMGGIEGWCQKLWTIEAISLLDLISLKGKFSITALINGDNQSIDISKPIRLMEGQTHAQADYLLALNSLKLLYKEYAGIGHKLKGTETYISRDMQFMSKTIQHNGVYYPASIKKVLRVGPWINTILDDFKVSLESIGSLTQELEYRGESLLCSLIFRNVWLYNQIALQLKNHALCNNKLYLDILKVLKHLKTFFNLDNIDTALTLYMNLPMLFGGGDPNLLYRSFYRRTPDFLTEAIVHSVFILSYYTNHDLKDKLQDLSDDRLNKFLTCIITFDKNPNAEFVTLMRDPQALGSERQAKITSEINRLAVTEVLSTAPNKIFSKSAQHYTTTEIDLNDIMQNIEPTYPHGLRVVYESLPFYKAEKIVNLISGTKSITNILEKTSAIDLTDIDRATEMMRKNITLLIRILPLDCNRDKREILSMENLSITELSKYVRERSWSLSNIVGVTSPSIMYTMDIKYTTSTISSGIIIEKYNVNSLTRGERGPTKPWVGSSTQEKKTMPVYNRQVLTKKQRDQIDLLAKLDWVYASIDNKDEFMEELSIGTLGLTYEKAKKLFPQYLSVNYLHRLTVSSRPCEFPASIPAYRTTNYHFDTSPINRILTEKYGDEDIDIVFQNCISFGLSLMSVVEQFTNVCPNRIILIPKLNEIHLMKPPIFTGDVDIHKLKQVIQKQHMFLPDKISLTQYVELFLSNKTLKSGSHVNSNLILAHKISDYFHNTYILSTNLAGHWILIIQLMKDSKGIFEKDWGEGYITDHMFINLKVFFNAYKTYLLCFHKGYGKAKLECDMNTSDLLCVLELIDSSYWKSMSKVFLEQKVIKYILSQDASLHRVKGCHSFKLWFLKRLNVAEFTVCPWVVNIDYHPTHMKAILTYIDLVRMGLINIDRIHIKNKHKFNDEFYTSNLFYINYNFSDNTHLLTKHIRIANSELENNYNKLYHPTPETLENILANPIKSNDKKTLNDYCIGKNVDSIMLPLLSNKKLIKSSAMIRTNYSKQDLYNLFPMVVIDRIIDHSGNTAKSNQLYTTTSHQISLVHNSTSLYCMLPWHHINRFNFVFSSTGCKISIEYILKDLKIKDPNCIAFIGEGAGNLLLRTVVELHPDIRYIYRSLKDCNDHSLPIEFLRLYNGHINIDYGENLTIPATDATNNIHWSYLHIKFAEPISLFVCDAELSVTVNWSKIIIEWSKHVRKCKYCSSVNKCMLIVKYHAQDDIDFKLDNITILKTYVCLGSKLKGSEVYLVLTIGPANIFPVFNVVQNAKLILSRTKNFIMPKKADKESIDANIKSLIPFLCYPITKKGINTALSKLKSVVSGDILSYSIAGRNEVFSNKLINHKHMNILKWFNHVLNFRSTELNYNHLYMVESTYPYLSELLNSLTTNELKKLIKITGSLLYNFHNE
structure (smiles),measurement,value
Cc1ccc(-n2c(SCC(=O)N/N=C/c3c4ccccc4cc4ccccc34)nnc2-c2ccccc2)cc1 [GPAR-3710],activity of the viral RdRp complex,remained unaffected
